In PMC6919601, “Identification of Plasmodium dipeptidyl aminopeptidase allosteric inhibitors by high throughput screening” (PLoS ONE, 2019):
Out of some 110,000 compounds screened, about 230 (0.21%) showed an effect of 50% or more. Some of the results follow.

The molecules below were run against DPAP1 (Plasmodium falciparum, UniProt Q8IIJ9) (assay: primary screen, percent inhibition; read by cleavage of a fluorogenic dipeptide substrate; higher = more effect of the substance).
Parameters: species or system P. falciparum D10 trophozoite lysates; single well
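Note: 30 min substrate incubation versus DMSO and 10 µM JCP410 controls.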

Chain of DPAP1 (Q8IIJ9 whole entry, looked up): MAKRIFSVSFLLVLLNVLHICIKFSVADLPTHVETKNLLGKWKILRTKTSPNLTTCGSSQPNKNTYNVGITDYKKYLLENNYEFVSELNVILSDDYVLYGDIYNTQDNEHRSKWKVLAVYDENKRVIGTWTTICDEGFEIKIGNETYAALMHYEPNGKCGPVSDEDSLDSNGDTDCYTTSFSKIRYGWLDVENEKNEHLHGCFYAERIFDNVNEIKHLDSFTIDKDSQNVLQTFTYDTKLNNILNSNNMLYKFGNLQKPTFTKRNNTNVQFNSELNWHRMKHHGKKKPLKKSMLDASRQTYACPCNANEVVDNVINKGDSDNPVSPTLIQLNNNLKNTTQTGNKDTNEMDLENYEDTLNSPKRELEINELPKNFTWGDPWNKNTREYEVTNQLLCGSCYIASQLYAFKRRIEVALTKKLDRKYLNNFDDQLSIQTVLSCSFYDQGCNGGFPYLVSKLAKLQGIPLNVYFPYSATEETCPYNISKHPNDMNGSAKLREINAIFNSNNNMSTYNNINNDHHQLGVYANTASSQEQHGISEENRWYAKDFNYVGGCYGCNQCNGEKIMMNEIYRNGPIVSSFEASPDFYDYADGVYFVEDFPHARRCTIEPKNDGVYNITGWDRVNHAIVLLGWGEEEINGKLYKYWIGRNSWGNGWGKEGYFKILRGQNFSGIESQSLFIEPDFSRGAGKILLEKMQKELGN

| Compound | % Inhibition @ 10 uM [%] |
| --- | --- |
| CCN(CC)CCCNc1oc(/C=C/c2ccccc2OC)nc1C#N | -0.808 |
| CSc1cccc(/N=C2/S/C(=C/c3cccnc3)C(=O)N2C)c1 | 0.722 |
| COc1ccc(C2C(C#N)=C(SCC(=O)NCc3ccccc3)N=C3CC(C)(C)CC(O)=C32)cc1 (stereo not drawn) | 2.46 |
| Cc1[nH]c(-c2ccc(F)cc2)cc1C(=O)NC1CCCc2ccccc21 (stereo not drawn) | 3.64 |
| Cc1[nH]nc(O)c1C(c1cccs1)c1c(O)n[nH]c1C | -1.63 |
| COc1ccc(C2CC(=O)NC(SC)=C2C#N)cc1OCc1ccccc1 (stereo not drawn) | 21.6 |
| CCCC1CCC(C2=N/C(=C\c3ccc(OC)c(OC)c3)C(=O)O2)CC1 (stereo not drawn) | 5.57 |
| Cc1ccc(CNc2ncc(-c3ccccc3)n2C)o1 | 3.93 |
| Cc1cc(/C=C2/NC(=O)NC2=O)c(C)n1-c1ccc(OCc2ccccc2Cl)cc1 | -1.25 |
| N#CC1=C(SCc2ccccc2)NC(=O)CC1c1cccc(O)c1 (stereo not drawn) | 4.52 |
| c1ccc(Nc2ncnc3sc4c(c23)CCCC4)cc1 | 4.65 |
| COc1ccc(C2OCC(C)(C(=O)O)CO2)cc1 (stereo not drawn) | 1.39 |
| Cc1cc(C)c2c(c1)C(=O)c1ccccc1-2 | -0.736 |
| Cc1cc(OCC(O)CN2CCN(CCO)CC2)cc(C)c1Cl (stereo not drawn) | -2.37 |
| O=C(c1cc([N+](=O)[O-])ccc1Cl)N1CCN(Cc2ccccc2)CC1 | -0.233 |
| COc1ccc(OC)c(CCNc2ccc3nnc(-c4ccccc4)n3n2)c1 | -4.85 |
| O=C(NCc1ccccc1)C(=O)c1c(O)[nH]c2ccccc12 | 8.73 |
| CC(C)(C)OC(=O)N1CCN(C(=O)OC(C)(C)C)CC1 | -0.312 |
| Cc1cccc(C)c1OCC(=O)N(Cc1ccccc1)C1CCS(=O)(=O)C1 (stereo not drawn) | -2.98 |
| CC1CN(C(=O)CCc2ccccc2)C(C)CN1C(=O)CCc1ccccc1 (stereo not drawn) | -2.9 |
| CN1CCN(C2=NC(=O)/C(=C\c3cccc4c3OCO4)S2)CC1 | 5.2 |
| COc1ccc2c(c1OC)C(=O)N(c1ccc(C)c(C)c1)C2=O | -3.41 |
| COc1ccc(OC)c(C2CC(=O)C3=C(C2)NC(=O)CC3c2ccc(C(F)(F)F)cc2)c1 (stereo not drawn) | -2.24 |
| CCOc1ccc(C(=O)c2oc3ccccc3c2NC(=O)c2cc(=O)c3ccccc3o2)cc1 | -3.24 |
| Clc1cccc(N2CCN(Cc3ccc(Br)o3)CC2)c1 | 1.34 |
| CN(C)CCCN(C(=O)CCc1ccccc1)c1nc2c(F)cccc2s1 | 3.96 |
| CCOC(=O)c1nnn(-c2nonc2N)c1CSc1ccc(C)cc1 | -0.0735 |
